From publication PMC12136788
The other results are listed elsewhere or left out.

B1: chr11:87793471:87793472:-_ENSMUSG00000020483_ENSMUST00000020775|mus_mus|mus_mus_mus_hu_False|28_28 (ssRNA)
RNA: GGGAGUUCUACAGUCCGACGAUCUGGACUUGAAAAUAAAAGAAUAAGCUGGAUCCCCCACCCCCCCACAUUGUCAACCCUACACGAGAGUUUUGAAGGCGACUCAUGAAUCAGCAGAGCUCAAACGGCAAUGACCACCCCACCCAACAGAGGAUUGAGCAUCA
B2: chr5:151042278:151042279:-_ENSG00000113140_ENST00000231061|hu_hu|motif|central (ssRNA)
RNA: GGGAGUUCUACAGUCCGACGAUCAUGACAAUCAUCCAAAUGUGAGGAAAGAACAACCGAUUCACCAACUCCACUUUUUCGGUUUUACAACUUUCUACAUCUCACUCUUGAUUUUGGCCUUCCUGGCUGAAACAGCCUGGCAGUCAACAGAGGAUUGAGCAUCA
B3: chr3:10015032:10015033:+_ENSMUSG00000027533_ENSMUST00000029046|mus_mus|mus_mus_mus_hu_True|18_28 (ssRNA)
RNA: GGGAGUUCUACAGUCCGACGAUCGUUUUUACCAUCACAAGUGAUGAUACAAUCUGGCUUGGCCAUUGCGCCCAUUUUUCGCAAAGCUAUUCCCACUCCUAGCUCCUUCAUGUACUCCUCAAAGCCGUUGCUGUCCACCAGGCGCAACAGAGGAUUGAGCAUCA
B4: chr5:65987834:65987835:+_ENSMUSG00000029203_ENSMUST00000142407|mus_hu|FALSE|FALSE (ssRNA)
RNA: GGGAGUUCUACAGUCCGACGAUCCAUCCACAUUUUCACACAAUCCCACCUUACUUCAAAAUAUAAAGUACGAGGUUUCAGGUAUUUAAAAUAAAUAAAGAAAAAUCUUGUUUCCUUUGGCAUCUUUAGAAAAUAAACUACAGCCAACAGAGGAUUGAGCAUCA
B5: chr1:130485734:130485735:-_ENSMUSG00000045382_ENSMUST00000052172|mus_mus|mus_mus_mus_hu_False|38_78 (ssRNA)
RNA: GGGAGUUCUACAGUCCGACGAUCGAUGAAGGAGUCGAUGCUGAUCCCAAUGUAGUAUGGCAGCCAGCAGGCGAAGAAAGCCAGGAUGAGGAUGACUGUCGUCUUGAGGGCCUUGCGCUUCUGGUGGCCCUUGGAGUGUGACAGCAACAGAGGAUUGAGCAUCA
B6: chr12:42180722:42180723:-_ENSMUSG00000036295_ENSMUST00000043884|mus_hu|mus_mus_mus_hu_True|18_58 (ssRNA)
RNA: GGGAGUUCUACAGUCCGACGAUCCUGUAGGAGAAGAAUCUGUGUGUUAGCUGGCAAUCUGGCUGGGAAAGUUAAAAGCCCUAAAUCAUUACAAUCCACUGUAGAUGCUUCCAUAUAGAUGGAUCUCGGUGUAAACCAAGGCCUCAACAGAGGAUUGAGCAUCA
B7: chr15:79941026:79941027:+_ENSMUSG00000022415_ENSMUST00000009727|mus_mus|FALSE|FALSE (ssRNA)
RNA: GGGAGUUCUACAGUCCGACGAUCCUUCUUGCGGUCCUUGACACUGCUGAUCUGCGGGAAGUACACAUCGAGCGCCAGGUAGAGCAGGCAGGUGAGGAAGGCCAACACACCCACAGUCACACCGUAGCUGCAGGCAUUGGGGUUCAACAGAGGAUUGAGCAUCA
B8: chr10:33190432:33190433:-_ENSG00000150093_ENST00000302278|hu_mus|hu_hu_hu_mus_True|8_108 (ssRNA)
RNA: GGGAGUUCUACAGUCCGACGAUCUACAUUUUCAAAACCUGCAUGUGAAUAAAACCCUGGCCACAGAGCCCCAAAACUACCCUACUGUGACUAAGAUGCUGCUGCUGUGAGCUUGGUGUUGCAAAAUUUUGCACGGGAGGAUUCCAACAGAGGAUUGAGCAUCA
B9: chr13:113752066:113752067:+_ENSG00000126217_ENST00000375604|hu_hu|motif|central (ssRNA)
RNA: GGGAGUUCUACAGUCCGACGAUCGGUGCGGCCUCCGAGGAGGCUGCAGUGCAGUGAGGCAGGGGCAGGGCUCUCUGAGCGGUGGUCGGCAGCACUGGUCCACGCCACACCCUGCAGAAACUGCAUCUUUGUAUUUUCUUUAAACAACAGAGGAUUGAGCAUCA
B10: chrX:41000244:41000245:+_ENSG00000124486_ENST00000378308|hu_hu|FALSE|FALSE (ssRNA)
RNA: GGGAGUUCUACAGUCCGACGAUCUGCUUCUUUUUUCAGUUCUUCAUCAGUUAAGUUUUCUAAAAACUGUGGAACCAUUUCUAUUAUUGGAAGAAAGUACUUUUUCACUGUAUGAAGAGUGAGAAACUCAUAGCAUUGCCCAAACAACAGAGGAUUGAGCAUCA
B11: chr16:94690093:94690094:+_ENSMUSG00000040785_ENSMUST00000117648|mus_hu|mus_mus_mus_hu_True|88_108 (ssRNA)
RNA: GGGAGUUCUACAGUCCGACGAUCGGGGACUCCUGUGGGACACACAGAUCUUCCCAGAGGGGGAAAAAGUCUUAGUCGAUACUAAUUAAAAAGUGUUAAUGAUUUUUGAAAAUCAGAUUACAUCUAUAAAAGAUGAAAAGCAAACAACAGAGGAUUGAGCAUCA
B12: chr2:42509997:42509998:+_ENSG00000143924_ENST00000318522|hu_mus|hu_hu_hu_mus_True|38_88 (ssRNA)
RNA: GGGAGUUCUACAGUCCGACGAUCUCGCUGAGUCCUCUCCUCAUAAUUAAAUAGUACUACCACUGAGGCGAUAAAAUAAACUAUCUCCCCUGUGGGAAGAAGGUAAACAUUCGCUCUACAGUCCUUUCCUCGAUAACCGUAUACCAACAGAGGAUUGAGCAUCA
B13: chr19:8913615:8913616:-_ENSMUSG00000071658_ENSMUST00000096259|mus_hu|mus_mus_mus_hu_False|58_98 (ssRNA)
RNA: GGGAGUUCUACAGUCCGACGAUCAGGGUACCAAAACACCCUGCCUCAAAUGGGUGCCCCACCCAGUAGGGAGUUGCAGCUAAAAAUAUCUGAUGCAGAAGCAGUGACUAUACGAAAGGAGGCCCCUGGGGAGGGCCAGGCCAGCAACAGAGGAUUGAGCAUCA
B14: chr19:8871807:8871808:-_ENSMUSG00000071662_ENSMUST00000096261|mus_mus|FALSE|FALSE (ssRNA)
RNA: GGGAGUUCUACAGUCCGACGAUCCACCACUUCACCUUUAAAGGGCCGGAAAACAAUAGCUUUGUAUUUCACUGGAUAAAGAACAAAACCUCGGCCUGGCUGGAUCACACCAGCACCAAUAUUGUCGAUGGUGGUGACAGCAAUCAACAGAGGAUUGAGCAUCA

These binders were tested against T1, UNK ZnF1-3 (human, UniProt Q9C0B0 31-174) (assay: nsRBNS (natural sequence RNA bind-n-seq); RBNS binding buffer (assumed for nsRBNS): 25 mM Tris pH 7.5, 150 mM KCl, 3 mM MgCl2, 0.01% Triton X-100, 500 ug/ml BSA, 20 U/ml SUPERase-In, 4 C; UNK is unkempt and MSI1 is Musashi-1; names of the RNAs are library labels; protein concentration not given here; high values mean tight binding).
T1 sequence: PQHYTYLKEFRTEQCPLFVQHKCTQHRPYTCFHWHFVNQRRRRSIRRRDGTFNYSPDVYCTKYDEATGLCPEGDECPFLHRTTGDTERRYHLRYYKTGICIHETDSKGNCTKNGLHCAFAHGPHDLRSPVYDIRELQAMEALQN

Binder | binding signal [enrichment R]
B1 | 1.82
B2 | 0.914
B3 | 0.68
B4 | 1.66
B5 | 0.909
B6 | 1.04
B7 | 1.22
B8 | 1.57
B9 | 0.819
B10 | 0.696
B11 | 1.08
B12 | 1.59
B13 | 1.92
B14 | 1.27
